The source of these data is patent publication US20240124563A1 (NANJING ZAIMING PHARMACEUTICAL, published 2024).

Test [1] addresses T1, human MSLN-R3-his protein (human, UniProt Q13421 487-598).
T1 construct: also called hMSLN-R3-his; not shown: histidine tag
Description: ELISA, coated antigen, 20 nM antibody. Background: In an ELISA, binding on a coated surface is turned into a signal by an enzyme label.

Test [2] deals with T2, human MSLN-R2-his protein (human, UniProt Q13421 391-486).
T2 construct: also called hMSLN-R2-his; not shown: histidine tag
Kind of test: ELISA, coated antigen, 20 nM antibody.

Test [3] has as its target T3, human MSLN-R1-his protein (human, UniProt Q13421 296-390).
T3 construct: also called hMSLN-R1-his; not shown: histidine tag
T3 chain: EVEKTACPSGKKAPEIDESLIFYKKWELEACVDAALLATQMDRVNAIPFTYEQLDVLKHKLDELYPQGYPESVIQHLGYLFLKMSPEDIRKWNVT
Kind of test: ELISA, coated antigen, 20 nM antibody.

In test [4] the target is T4, human MSLN-FL-his protein (human, UniProt Q13421 296-580).
T4 construct: also called hMSLN-FL-his; not shown: histidine tag
Description: ELISA, coated antigen, 20 nM antibody.

Test [5] addresses T4, human MSLN-FL-his protein. Description: ELISA, coated antigen, 0.01 nM antibody.
Test [6] deals with T4, human MSLN-FL-his protein. Kind of test: ELISA, coated antigen, 1 nM antibody.
For test [7], the target named is T1, human MSLN-R3-his protein. Kind of test: ELISA, coated antigen, 0.2 nM antibody.
The target of test [8] is T2, human MSLN-R2-his protein. Kind of test: ELISA, coated antigen, 0.2 nM antibody.
In test [9] the target is T3, human MSLN-R1-his protein. Description: ELISA, coated antigen, 0.2 nM antibody.
The target of test [10] is T4, human MSLN-FL-his protein. Description: ELISA, coated antigen, 0.2 nM antibody.
The target in test [11] is T1, human MSLN-R3-his protein. Description: ELISA, coated antigen, 1 nM antibody.
The target of test [12] is T4, human MSLN-FL-his protein. Description: ELISA, coated antigen, 10 nM antibody.
For test [13], the target named is T4, human MSLN-FL-his protein. Kind of test: ELISA, coated antigen, 0 nM antibody (blank).
For test [14], the target named is T4, human MSLN-FL-his protein. Description: ELISA, coated antigen, 0.0001 nM antibody.
Test [15] has as its target T1, human MSLN-R3-his protein. Kind of test: ELISA, coated antigen, 0 nM antibody (blank).
Test [16] concerns the target T4, human MSLN-FL-his protein. Description: ELISA, coated antigen, 100 nM antibody.
The target of test [17] is T1, human MSLN-R3-his protein. Kind of test: ELISA, coated antigen, 10 nM antibody.
Test [18] deals with T1, human MSLN-R3-his protein. Kind of test: ELISA, coated antigen, 0.001 nM antibody.
The target in test [19] is T1, human MSLN-R3-his protein. Kind of test: ELISA, coated antigen, 0.1 nM antibody.
The target in test [20] is T1, human MSLN-R3-his protein. Kind of test: ELISA, coated antigen, 0.01 nM antibody.
Test [21] addresses T1, human MSLN-R3-his protein. Description: ELISA, coated antigen, 0.0001 nM antibody.
Test [22] has as its target T4, human MSLN-FL-his protein. Description: ELISA, coated antigen, 0.1 nM antibody.
In test [23] the target is T4, human MSLN-FL-his protein. Description: ELISA, coated antigen, 0.001 nM antibody.
The target in test [24] is T1, human MSLN-R3-his protein. Description: ELISA, coated antigen, 100 nM antibody.
Test [25] has as its target T5, chimeric human MSLN-R3 / chicken MSLN-R1-2 protein on HEK293T cells (clone A5) (chicken; human).
T5 construct: range 327-514; Human R1-R2 replaced by chicken R1-R2; also called HEK293T-chickR1-2/hR3-A5; HEK293T-hR3/chickR1-2-A5
Description: FACS, HEK293T-hR3/chickR1-2-A5 cells, antibody 20 nM.

The target in test [26] is T5, chimeric human MSLN-R3 / chicken …. Description: FACS, HEK293T-hR3/chickR1-2-A5 cells, antibody 0.2 nM. In general terms: A flow cytometer gives signals particle by particle.

B1: NB149-95 VHH-hFc (Fc fusion)
chain: QVQLVESGGGLVQAGGSLRLSCTASESGFSANYMGWYRQEAPGKERELVATINRFGSTNYADSVKGRFTISRDNAKNTVYLQMNSLKSEDTGVYYCRIMRPGNWYWGQGTQVTVSS[human IgG1 Fc with changes not written out]
notes: no linker stated
With B1, the OD450 nm in test [1] was found to be 0.06 OD450 nm; in test [2] it was 0.34 OD450 nm; in test [3], 2.41 OD450 nm; in test [4] it was 2.66 OD450 nm; in [5] it was 0.05 OD450 nm; in test [6], 0.43 OD450 nm. For the same molecule, the OD450 nm in test [7] amounted to 0.05 OD450 nm; in test [8], 0.1 OD450 nm; in test [9], 2.02 OD450 nm; in test [10] it was 2.47 OD450 nm; in test [11], 0.05 OD450 nm; in [12], 2.35 OD450 nm. Besides, the OD450 nm came out at 0.06 OD450 nm in test [13]; 0.04 OD450 nm in test [14]; 0.05 OD450 nm in [15]; 2.4 OD450 nm in [16]; 0.05 OD450 nm in test [17]; 0.05 OD450 nm in [18]. Further, the OD450 nm was determined as 0.05 OD450 nm in [19]; 0.05 OD450 nm in test [20]; 0.05 OD450 nm in test [21]; 0.07 OD450 nm in test [22]; 0.05 OD450 nm in [23]; 0.06 OD450 nm in test [24].

B2: NB149-34 VHH-hFc (Fc fusion)
chain: QLQLVESGGGLVQPGGSLRLSCAASGSVNSITAMGWYRQGPGNERELVAVITDRGRASYADSVKGRFAISMDNDKHTVYLQMDSLKPEDTAVYYCNAHRRTWPHPGDYWGQGTQVTVSS[human IgG1 Fc with changes not written out]
notes: no linker stated
As to B2, the OD450 nm amounted to 0.06 OD450 nm in test [1]; 0.08 OD450 nm in test [2]; 0.78 OD450 nm in test [3]; 2.72 OD450 nm in test [4]; 0.06 OD450 nm in test [5]; 0.86 OD450 nm in test [6]. For the same molecule, the OD450 nm in test [7] was found to be 0.05 OD450 nm; in test [8], 0.07 OD450 nm; in [9] it was 0.19 OD450 nm; in test [10], 2.48 OD450 nm; in test [11], 0.05 OD450 nm; in test [12], 2.07 OD450 nm. Also, the OD450 nm came to 0.05 OD450 nm in [13]; 0.05 OD450 nm in test [14]; 0.05 OD450 nm in [15]; 2.62 OD450 nm in test [16]; 0.05 OD450 nm in test [17]; 0.05 OD450 nm in test [18]. The OD450 nm in test [20] stood at 0.06 OD450 nm; in [21], 0.05 OD450 nm; in test [22], 0.17 OD450 nm; in test [23] it was 0.05 OD450 nm; in [24], 0.07 OD450 nm.

B3: NB149-97 VHH-hFc (Fc fusion)
chain: EVQVVESGGGLVQAGGGLRLSCAASERTFSSSSIGWFRQAPGKEREFVATMNRIGGHTFYADPVKGRFTISRDNAANTVYLQMSSLKPEDAAVYYCASSRIYSHSPRDYDYWSQGTQVTVSS[human IgG1 Fc with changes not written out]
notes: no linker stated
B3: the OD450 nm in test [5] worked out at 0.45 OD450 nm; in test [6], 2.29 OD450 nm; in test [11] it was 0.06 OD450 nm; in test [12] it was 2.28 OD450 nm; in test [13] it was 0.06 OD450 nm; in [14] it was 0.06 OD450 nm. Besides, the OD450 nm came out at 0.06 OD450 nm in test [15]; 2.6 OD450 nm in [16]; 0.06 OD450 nm in test [17]; 0.06 OD450 nm in [18]; 0.06 OD450 nm in [19]; 0.06 OD450 nm in test [20]. The OD450 nm was 0.06 OD450 nm in test [21], 1.75 OD450 nm in test [22], 0.1 OD450 nm in test [23] and 0.09 OD450 nm in test [24].

B4: NB148-25 VHH-hFc (Fc fusion)
chain: QVQLVESGGGLVQAGGSLRLSCAASGSTFGRIVMRWYRQAQGKQREWVASIYDSGSTSYSDPVQGRFTISRDNARNTVYLQMNSLRPADTAVYYCNLGTALSSYWGQGTQVTVSS[human IgG1 Fc with changes not written out]
notes: no linker stated
As to B4, the OD450 nm in [1] was 0.18 OD450 nm; in test [2], 2.31 OD450 nm; in [3], 0.46 OD450 nm; in test [4] it was 2.71 OD450 nm; in test [5] it was 0.06 OD450 nm; in test [6] it was 1.16 OD450 nm. The OD450 nm in [7] turned out to be 0.06 OD450 nm; in test [8], 1.92 OD450 nm; in test [9], 0.14 OD450 nm; in [10], 2.35 OD450 nm; in test [11], 0.05 OD450 nm; in test [12], 2.62 OD450 nm. Also, the OD450 nm in test [13] came to 0.05 OD450 nm; in test [14], 0.05 OD450 nm; in test [15], 0.05 OD450 nm; in [16], 2.64 OD450 nm; in test [17] it was 0.05 OD450 nm; in test [18], 0.05 OD450 nm. The OD450 nm in [19] came out at 0.05 OD450 nm; in test [20], 0.05 OD450 nm; in test [21], 0.05 OD450 nm; in test [22], 0.19 OD450 nm; in test [23] it was 0.05 OD450 nm; in test [24], 0.06 OD450 nm.

B5: NB148-13 VHH-hFc (Fc fusion)
chain: QLQLVESGGGLVQAGGSLRLSCTASGSTSMSYGAKWFRRAPGKEREWVASVYRDGTTGYDDSVKGRFTISRDLAKNTVYLQMNSLRLEDTAVYYCTALNSWGQGTQVTVSS[human IgG1 Fc with changes not written out]
Turning to B5, the MFI in [25] and in test [26] was 74 throughout.

B6: NB148-27 VHH-hFc (Fc fusion)
chain: EVQVVESGGGLVQAGASLRLSCASSGRTISPIAMAWFRQAPGKERELVAGLTWTGRTYYSDSVKGRFTISRDNAKNTVYLQMDSLKFEDTAVYFCAAGDNPDRRGSSWSSSSVYEYWGQGTQVTVSS[human IgG1 Fc with changes not written out]
notes: no linker stated
For B6, the OD450 nm in test [1] is 0.07 OD450 nm; in test [2] it was 0.12 OD450 nm; in [3], 2 OD450 nm; in test [4] it was 2.75 OD450 nm; in [5] it was 0.1 OD450 nm; in [6], 1.98 OD450 nm. Further, the OD450 nm is 0.05 OD450 nm in test [7]; 0.06 OD450 nm in [8]; 1.13 OD450 nm in test [9]; 2.39 OD450 nm in test [10]; 0.05 OD450 nm in test [11]; 2.69 OD450 nm in test [12]. Moreover, the OD450 nm in test [13] is 0.05 OD450 nm; in test [14], 0.05 OD450 nm; in test [15], 0.05 OD450 nm; in test [16] it was 2.53 OD450 nm; in test [17], 0.05 OD450 nm; in test [18], 0.05 OD450 nm. The OD450 nm in test [19] turned out to be 0.05 OD450 nm; in test [20], 0.05 OD450 nm; in test [21] it was 0.05 OD450 nm; in test [22], 0.44 OD450 nm; in [23] it was 0.05 OD450 nm; in [24], 0.05 OD450 nm.
